The subject of the assay is primary human hepatic stellate cells (donor 1). The assay is described as follows: scaled lipid accumulation score (0 = DMSO-like, 1 = nortriptyline-like); higher = stronger HSC inactivation (lipid re-accumulation), active = hit call of the paper. Particulars: 48 h.
[1] abbreviates: library stock concentration: 1 mM.
Setting [2] is: library stock concentration: 3.33 mM.
Where [3] appears, read: library stock concentration: 10 mM.
Setting [4] is: library stock concentration: 6 mM.

Where “and” joins values, the source holds several entries; their conditions need not be identical. Equal entries are not always repeated. Structures can show the parent of a compound that is named as a salt. Screen size: about 5,800 compounds; about 620 (11%) showed activity.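 Rule for the calls: active = score above a cut-off or among the top three wells of a plate; in these data no inactive exceeds 0.85.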 The list shows a part of the results, in another mix than the full data.

For the compound `NCCc1cc[nH]n1` [Betazole hydrochloride], the “scaled lipid accumulation score” value was inactive: 0.123.

Consider `CCCCCCCCCC(=O)OCC(CO)OC(=O)CCCCCCCCC` (stereo unspecified) [1,2-Didecanoyl-sn-glycerol], for which the “scaled lipid accumulation score” value under setting [1] was inactive: ≤ 0.

Turning to `CCCCCCCCCC(=O)OCC(CO)OC(=O)CCCCCCCCC` (stereo unspecified) [1,2-Didecanoyl-glycerol (10:0)], under setting [1], the “scaled lipid accumulation score” value is inactive: ≤ -0.021.

`CC(=O)C1=C(O)C=C2Oc3c(C(C)=O)c(O)c(C)c(O)c3C2(C)C1=O` (single isomer, unassigned; (+)) [(+)-Usniacin]: the “scaled lipid accumulation score” value reads like this: under setting [2], inactive: 0.01; under setting [3], inactive: ≤ 0.

Take `O=c1cc(-c2ccc(O)cc2)oc2cc(O[C@@H]3O[C@H](CO)[C@@H](O)[C@H](O)[C@H]3O)cc(O)c12` [Cosmosiin]: the “scaled lipid accumulation score” value under setting [3] is inactive: 0.333.

Consider `Cc1c(NC(C)C)c(=O)n(-c2ccccc2)n1C` [Ramifenazone], for which the “scaled lipid accumulation score” value under setting [3] was inactive: 0.012.

On to `Cc1c(NC(C)C)c(=O)n(-c2ccccc2)n1C` [Isopyrin hydrochloride], for which the “scaled lipid accumulation score” value was inactive: ≤ 0.

Consider `O=C(O)c1cc2cccc([N+](=O)[O-])c2[nH]1`, for which the “scaled lipid accumulation score” value is, setting by setting: under setting [2], inactive: ≤ -0.009; under setting [3], inactive: 0.006.

As for `COc1ccc(CCc2nc3cc(-c4c(C)noc4C)ccc3n2C[C@H](C)N2CCOCC2)cc1Cl`, the “scaled lipid accumulation score” value is inactive: ≤ -0.009 under setting [2] and inactive: 0.391 under setting [3].

With `COc1cc(/C=C(\C#N)C(=O)c2ccc(O)c(O)c2)cc(I)c1O` [I-OMe-Tyrphostin AG 538], the “scaled lipid accumulation score” value under setting [3] is inactive: ≤ 0.

Consider `CNCC[C@H](Oc1cccc2ccccc12)c1cccs1.Cl` [Duloxetine hydrochloride], for which the “scaled lipid accumulation score” value under setting [4] was active: 1.05.

As to `CC1(C)S[C@@H]2[C@H](NC(=O)[C@H](N)c3ccccc3)C(=O)N2[C@H]1C(=O)OC1OC(=O)c2ccccc21` (stereo partly specified) [Talampicillin hydrochloride], the “scaled lipid accumulation score” value was inactive: ≤ 0.

For `NC(=O)OCC(O)COc1ccc(Cl)cc1` (stereo unspecified) [Chlorphensin carbamate], the “scaled lipid accumulation score” value was inactive: ≤ 0.

On to `CC(=O)OCOC(c1cc([N+](=O)[O-])ccc1Oc1ccc(Br)cc1)P(=O)(OCOC(C)=O)OCOC(C)=O` (stereo unspecified), for which the “scaled lipid accumulation score” value (library stock concentration: 8.1 mM) was active: 0.887.

In the case of `O=C(O)c1ccc(-n2nc(-c3ccccc3O)nc2-c2ccccc2O)cc1` [Deferasirox], the “scaled lipid accumulation score” value reads like this: under setting [2], inactive: ≤ 0; under setting [3], inactive: 0.042.

For the compound `COc1cc(C(=O)NC2CCN(C)CC2)ccc1Nc1ncc2c(n1)N(C1CCCC1)CC(F)(F)C(=O)N2C`, the “scaled lipid accumulation score” value is inactive: 0.271 under setting [2] and inactive: 0.722 under setting [3].

With `O=C1c2ccccc2-c2nc3nnnn3nc21` [PDK1/Akt/Flt Dual Pathway Inhibitor], the “scaled lipid accumulation score” value under setting [2] was inactive: 0.462.

With `O=C(NCc1cccc(O)c1)Nc1nc(-c2ccncc2)cs1`, the “scaled lipid accumulation score” value under setting [2] was inactive: 0.56.

For `COC(=O)CCc1ccc(OCC(O)CNC(C)C)cc1` (stereo unspecified) [Esmolol HCl], the “scaled lipid accumulation score” value under setting [2] was inactive: ≤ 0 and the “scaled lipid accumulation score” value under setting [3] is inactive: ≤ -0.001.

As to `COC(=O)CCc1ccc(OCC(O)CNC(C)C)cc1` (stereo unspecified) [Esmolol], where the note is “library stock concentration: 6.8 mM”, the “scaled lipid accumulation score” value was inactive: ≤ 0.

Turning to `COC(=O)CCc1ccc(OCC(O)CNC(C)C)cc1` (stereo unspecified), under setting [3], the “scaled lipid accumulation score” value was inactive: ≤ 0.

As to `CC(N)(Cc1ccc(O)cc1)C(=O)O` (racemic) [DL-alpha-Methyl-p-tyrosine], the “scaled lipid accumulation score” value under setting [3] was inactive: 0.213.

Consider `CN1C(C(=O)Nc2ccccn2)=C(O)c2ccccc2S1(=O)=O` [Piroxicam], for which the “scaled lipid accumulation score” value is inactive: 0.194. The “scaled lipid accumulation score” value under setting [2] was inactive: 0.032. Besides, the “scaled lipid accumulation score” value under setting [4] was inactive: ≤ -0.006 and inactive: ≤ 0. For the same compound, the “scaled lipid accumulation score” value under setting [3] was inactive: ≤ 0 and inactive: ≤ -0.006. Further, the “scaled lipid accumulation score” value (library stock concentration: 15.1 mM) was inactive: ≤ -0.012.

For the compound `COc1c(C)c2c(c(O)c1C/C=C(\C)CCC(=O)OCCN1CCOCC1)C(=O)OC2` [Mycophenolate Mofetil], the “scaled lipid accumulation score” value under setting [2] was inactive: ≤ 0 and the “scaled lipid accumulation score” value under setting [3] is inactive: ≤ 0.

As to `NCCS` [Cysteamine hydrochloride], the “scaled lipid accumulation score” value under setting [3] was inactive: ≤ -0.05.

For `NCCS` [Mercaptamine hydrochloride], the “scaled lipid accumulation score” value under setting [3] was inactive: 0.156.

Take `NCCS` [Cysteamine HCl]: the “scaled lipid accumulation score” value by setting is: under setting [2], inactive: ≤ 0; under setting [3], inactive: ≤ -0.001.

As for `COCCOC(=O)C1=C(C)NC(C)=C(C(=O)OC(C)C)C1c1cccc([N+](=O)[O-])c1` (stereo unspecified), the “scaled lipid accumulation score” value under setting [3] is inactive: 0.023.

For the compound `COCCOC(=O)C1=C(C)NC(C)=C(C(=O)OC(C)C)C1c1cccc([N+](=O)[O-])c1` (stereo unspecified) [Nimodipine], the “scaled lipid accumulation score” value was inactive: ≤ 0. Moreover, the “scaled lipid accumulation score” value under setting [2] was inactive: 0.049. Moreover, for the setting “library stock concentration: 4.8 mM”, the “scaled lipid accumulation score” value was inactive: ≤ -0.006 and inactive: ≤ 0. For the same compound, where the note is “library stock concentration: 12 mM”, the “scaled lipid accumulation score” value is inactive: 0.052.

Regarding `CCCCOc1cc(C(=O)NCCN(CC)CC)c2ccccc2n1.Cl` [Dibucaine HCl], the “scaled lipid accumulation score” value under setting [3] was active: 0.977.

Turning to `COC(=O)[C@@H](N)Cc1ccc(O)c(O)c1` [L-3,4-Dihydroxyphenylalanine methyl ester hydrochloride], the “scaled lipid accumulation score” value under setting [3] was inactive: ≤ -0.07.

As for `C[C@]12CCC(=O)C=C1C=C[C@@H]1[C@@H]2CC[C@@]2(C)[C@H]1CC[C@@]21CCC(=O)O1` [Canrenone], the “scaled lipid accumulation score” value is, setting by setting: (library stock concentration: 5.9 mM) inactive: ≤ 0; under setting [3], inactive: ≤ -0.027.

Take `COc1ccc2c(c1)c(CC(=O)O)c(C)n2Cc1ccc(Cl)cc1` [1-(4-Chlorobenzyl)-5-methoxy-2-methylindole-3-acetic acid]: the “scaled lipid accumulation score” value under setting [3] is inactive: 0.078.

Turning to `CC1(C)[C@@H](O)CC[C@]2(C)[C@H]3C(=O)C=C4[C@@H]5C[C@@](C)(C(=O)O)CC[C@]5(C)CC[C@@]4(C)[C@]3(C)CC[C@@H]12` [Enoxolone], the “scaled lipid accumulation score” value under setting [2] is inactive: 0.016 and the “scaled lipid accumulation score” value under setting [3] is inactive: ≤ 0.

Regarding `C[C@H]1COC2(CCN(c3nc(=O)c4cc(C(F)(F)F)cc([N+](=O)[O-])c4s3)CC2)O1` (racemic) [BTZ043 Racemate], the “scaled lipid accumulation score” value runs as follows: under setting [2], inactive: ≤ 0; under setting [3], inactive: ≤ 0.

`Oc1cc(O)c2c(c1)O[C@H](c1ccc(O)c(O)c1)[C@@H](O)C2` (racemic) [(+)-Catechin (hydrate)]: under setting [1], the “scaled lipid accumulation score” value is inactive: ≤ 0.

Turning to `Oc1cc(O)c2c(c1)O[C@H](c1ccc(O)c(O)c1)[C@@H](O)C2` (racemic) [(+)-Catechin Hydrate], the “scaled lipid accumulation score” value under setting [3] was inactive: ≤ 0.

With `Cc1ccc(C)c(OCCCC(C)(C)C(=O)O)c1` [Gemfibrozil], the “scaled lipid accumulation score” value is inactive: ≤ 0. In addition, the “scaled lipid accumulation score” value under setting [2] is inactive: ≤ 0. Further, the “scaled lipid accumulation score” value (library stock concentration: 8 mM) is inactive: ≤ 0 and inactive: ≤ -0.001. Also, under setting [3], the “scaled lipid accumulation score” value was inactive: ≤ 0.

With `Cc1ccc(C)c(OCCCC(C)(C)C(=O)O)c1`, under setting [3], the “scaled lipid accumulation score” value is inactive: ≤ 0.

For the compound `O=c1[nH]c2cc(Cl)ccc2c(O)c1-c1cccc(Oc2ccccc2)c1`, the “scaled lipid accumulation score” value under setting [3] is inactive: 0.13 and inactive: ≤ 0.

(Values after the supplement of paper PMC9135407.)
